In patent US20190290692A1 (MINERVA BIOTECHNOLOGIES, published 2019):

Assays:
Experiment in all cases: ELISA, peptide immobilised on surface (FIG. 20)
[1] = target: T1, PSMGFR minus 10 amino acids from the N-terminus
T1 construct: also called N-10; N-10 PSMGFR
T1 peptide: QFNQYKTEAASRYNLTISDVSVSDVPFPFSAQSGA
Text: (§1) The hu MN-E6 scFv-Fc bound to the PSMGFR peptide and to the PSMGFR N-10 peptide but not to the PSMGFR C-10 peptide. The parent MN-E6 antibody and the humanized MN-E6 require the C-terminal 10 amino acids of PSMGFR for binding.

[2] = target: T2, PSMGFR minus 10 amino acids from the C-terminus
T2 construct: also called C-10; C-10 PSMGFR
T2 peptide: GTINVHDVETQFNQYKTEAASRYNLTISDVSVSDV
Text: as §1

[3] = target: T3, PSMGFR peptide (Primary Sequence of the MUC1 Growth Factor Receptor)
T3 construct: Immobilised on ELISA plates or attached to 1 um or 4.5 um beads; also called MUC1* peptide; MUC1* PSMGFR peptide
T3 peptide: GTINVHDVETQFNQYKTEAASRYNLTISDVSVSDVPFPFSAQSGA
Text: as §1

- binding result [1]: binds
- binding result [2]: no binding
- binding result [3]: binds
B1: humanized MN-E6 scFv-Fc (wild type Fc) (Fc fusion)
chain: DAAQPAEVQLVESGGGLVKPGGSLRLSCAASGFTFSRYGMSWVRQAPGKRLEWVSTISGGGTYIYYPDSVKGRFTISRDNAKNTLYLQMNSLRAEDTAVYYCTRDNYGRNYDYGMDYWGQGTLVTVSSGGGGSGGGGSGGGGSEIVLTQSPATLSLSPGERATLTCSATSSVSYIHWYQQRPGQSPRLLIYSTSNLASGIPARFSGSGSGSDYTLTISSLEPEDFAVYYCQQRSSSPFTFGSGTKVEIK[human IgG1 Fc left out]
notes: Biotinylated for some tissue stainings; also called hu MN-E6 scFv-Fc; hu MN-E6 scFv-Fc-wt
